Out of some 410,000 compounds screened, about 6,400 (1.6%) were called active. This list was built around the results that the source calls inconclusive (neither active nor inactive); the mix of calls is not that of the screen. Calls follow the shape of the dose curve; as a rule, active = well fitted inhibition curve with a large enough effect; inconclusive = small, poorly fitted or top-dose-only effect; inactive = no such curve, though single readings can be large or run the other way. A potency beside an inconclusive call is a rough fit, not a confirmed value.
molecular target: Glucagon-like peptide 1 receptor (Homo sapiens) (UniProt P43220); experiment: qHTS of GLP-1 Receptor Inverse Agonists (Inhibition Mode); details: HEK293 GLP-1R CRE-luciferase, luminescence, 24 h, GLP-1R form is constitutively active; activity change, negative = inhibition: at 38.3 µM (top of the series) unless noted; also: nearly all actives have a fitted effect of over 55% in size
Chain of UniProt P43220 (P43220 whole entry, looked up): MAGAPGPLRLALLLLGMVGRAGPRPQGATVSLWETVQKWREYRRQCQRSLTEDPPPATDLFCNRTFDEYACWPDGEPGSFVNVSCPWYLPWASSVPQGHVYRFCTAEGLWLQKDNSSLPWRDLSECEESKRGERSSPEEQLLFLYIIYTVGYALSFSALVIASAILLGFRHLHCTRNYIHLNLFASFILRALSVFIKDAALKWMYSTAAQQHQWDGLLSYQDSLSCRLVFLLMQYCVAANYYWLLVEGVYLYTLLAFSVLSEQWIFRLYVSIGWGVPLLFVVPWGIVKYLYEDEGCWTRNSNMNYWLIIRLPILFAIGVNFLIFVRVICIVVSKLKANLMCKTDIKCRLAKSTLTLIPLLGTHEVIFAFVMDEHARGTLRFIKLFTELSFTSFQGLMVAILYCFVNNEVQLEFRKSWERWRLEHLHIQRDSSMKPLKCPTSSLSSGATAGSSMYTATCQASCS
Procedure, shortened: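 HEK293 cells stably co-expressing constitutively active GLP-1R and a cAMP-responsive luciferase reporter were seeded in DMEM with 10% Nu serum, given compounds after 12 h, and incubated 24 h at 37 deg C. Luminescence was then read.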
% is scaled to controls: 0 for no effect and ±100 for the full control effect; potency is read from the fitted curve at half-maximal effect; tags tell the direction and shape of the fitted curve.

Potency, inconclusive:
CCOc1ccc(C(=O)Nc2ccc(S(=O)(=O)N(Cc3ccccc3)c3ccccc3)cc2)cc1 1.58 µM [inhibitor, full curve, poor fit], CCN(CC(=O)Nc1cccc(OC)c1)CC(=O)Nc1ccc(Br)c(C)c1 20 µM [inhibitor, partial curve, poor fit], CCOC(=O)c1c(NC(=O)CSc2cn(CCNC(=O)c3ccc(OCC)cc3)c3ccccc23)sc2c1CCCC2 22.4 µM [inhibitor, single point], Cc1cc(N2CCCCC2)nc2ccc(NC(=O)c3ccc(F)cc3)cc12 7.94 µM [inhibitor, partial curve, poor fit], Cc1cccc(NC2=C(Cl)C(=O)OC2OC(C)C)c1 (stereo not drawn) 11.2 µM [inhibitor, partial curve, poor fit], Fc1ccccc1-c1nc(NCc2ccccc2)c2ccccc2n1 11.2 µM [inhibitor, single point], O=C(NC(Cc1ccccc1)c1nc2ccccc2[nH]1)C1CC(=O)N(c2ccc3c(c2)OCCO3)C1 (stereo not drawn) 11.2 µM [inhibitor, partial curve, poor fit], CCC(c1nnnn1Cc1ccc(F)cc1)N1CCN(C2CCCCC2)CC1 (stereo not drawn) 28.2 µM [inhibitor, single point], CCN1C(=O)[C@H]2[C@@H](c3ccc(-c4ccc(Cl)c(Cl)c4)cc3)N3CCCC[C@@]3(C(=O)OC)[C@H]2C1=O 1.58 µM [inhibitor, partial curve, poor fit], COc1ccc(C(=O)Nc2ccc(Cl)c(S(=O)(=O)Nc3ccccc3OC)c2)cc1 28.2 µM [inhibitor, single point], O=C(CN1CCCCC1)Nc1cccc(Br)c1 28.2 µM [inhibitor, single point], Cc1ccc(N2CCN(S(=O)(=O)N3CCCCC3)CC2)c(C)c1 28.2 µM [inhibitor, single point], COc1ccc(CC(=O)Nc2cc(Cl)ccc2N2CCCC2)cc1 8.91 µM [inhibitor, partial curve, poor fit], Cc1cc(C(=O)N2CCc3ccccc32)n(-c2ccccc2)n1 7.08 µM [inhibitor, partial curve, poor fit], Cc1ccccc1C(=O)NCc1nc(-c2ccc(Cl)cc2)no1 31.6 µM [inhibitor, single point], CCCC(C(=O)NC1CCCC1)N(C(=O)Cn1nnc(-c2ccc(C)o2)n1)c1cccc(O)c1 (stereo not drawn) 12.6 µM [inhibitor, single point], CN1CCSc2ccc(C(=O)Nc3cc(F)ccc3F)cc21 28.2 µM [inhibitor, single point], Cc1ccc(C)c(N2CCN(C(=O)CCc3nc(-c4ccccc4Br)no3)CC2)c1 12.6 µM [inhibitor, partial curve, poor fit], COc1ccc(NC(=S)NC2CCN(Cc3ccccc3)CC2)cc1OC 11.2 µM [inhibitor, single point], O=C(NC(=S)NCCc1ccccc1)C1CCCCC1 11.2 µM [inhibitor, single point], CCC(C(=O)Nc1ccc(C(C)C)cc1)n1nc(C)n2c(cc3cc(C)ccc32)c1=O (stereo not drawn) 8.91 µM [inhibitor, partial curve, poor fit], COC(=O)c1ccc2[nH]c3c(c2c1)CC(C)CC3 (stereo not drawn) 12.6 µM [inhibitor, single point], Cc1nc(C(=O)N2CCc3c([nH]c4ccccc34)C2c2ccccn2)cs1 (stereo not drawn) 12.6 µM [inhibitor, partial curve, poor fit], Cc1ccnc(NCc2cc(Cl)ccc2O)c1 28.2 µM [inhibitor, single point], CCN(CC(=O)NCCc1ccccc1)S(=O)(=O)c1ccc(Br)cc1 31.6 µM [inhibitor, partial curve, poor fit], CSc1ccc(CNC(=O)Cc2ccc(NC(=O)C3=C(C)OCCS3)cc2)cc1 4.47 µM [inhibitor, partial curve], CCOC(=O)c1ccc(NC2(c3ccccc3)C(=O)c3ccccc3C2=O)cc1 14.1 µM [inhibitor, single point], COc1ccccc1CNC(=O)C(Cc1c[nH]c2ccccc12)NC(=O)OCc1ccccc1 (stereo not drawn) 28.2 µM [inhibitor, single point], CC1CN(CCS(=O)(=O)c2cc(Cl)ccc2Cl)CC(C)O1 (stereo not drawn) 28.2 µM [inhibitor, single point], CC(=O)Nc1cccc(-c2ccnc3c2CC(C)(C(=O)NCC2CC2)O3)c1 (stereo not drawn) 6.31 µM [inhibitor, partial curve, poor fit], COc1cccc(Cn2c(Oc3cccc(C)c3)nc3c2c(=O)n(C)c(=O)n3C)c1 31.6 µM [inhibitor, single point], CC(C)(C)n1cnc2cc(NS(=O)(=O)c3ccc(Br)cc3)ccc21 2.51 µM [inhibitor, single point], O=C1NC(=S)S/C1=C\c1ccc(SCc2ccco2)o1 28.2 µM [inhibitor, single point], Cn1cccc1CC(=O)N/N=C/c1cccc2ccccc12 28.2 µM [inhibitor, single point], O=C(NC(=S)NCc1ccccc1)c1ccccc1 10 µM [inhibitor, partial curve], CCCCN(C(=O)c1cc(-c2ccc(F)cc2)nc2ccccc12)c1c(N)n(CCCC)c(=O)[nH]c1=O 14.1 µM [inhibitor, single point], O=C(CSc1ccccc1)NCC(c1ccco1)N1CCCCC1 (stereo not drawn) 11.2 µM [inhibitor, single point], Cc1nc(-c2cccc(NC(=O)C(C)Oc3ccccc3)c2)cs1 (stereo not drawn) 28.2 µM [inhibitor, single point], Cc1nc(Nc2ccccc2)sc1C(=O)c1ccc(F)cc1 12.6 µM [inhibitor, single point], CCCS(=O)(=O)c1c(S(=O)(=O)CCC)c2cc(CC)ccn2c1C(=O)OC 28.2 µM [inhibitor, single point], CCOC(=O)c1c(C)[nH]c(C)c1C(=O)CSc1nc2ccccc2c(=O)n1-c1ccc(Cl)cc1 10 µM [inhibitor, partial curve, poor fit], CCNS(=O)(=O)c1ccc(CCC(=O)Nc2cc(Cl)ccc2Oc2ccccc2)cc1 28.2 µM [inhibitor, single point], O=C1CSC(c2nn(-c3ccccc3)cc2-c2cc3ccccc3oc2=O)N1Cc1ccco1 (stereo not drawn) 10 µM [inhibitor, partial curve, poor fit], O=C(NC1CCCCC1)C(CCc1ccccc1)n1c(=O)c(-c2ccccc2)nc2ccccc21 (stereo not drawn) 12.6 µM [inhibitor, single point], CCOC(=O)N1CCC(N2Cc3cccc(C(=O)Nc4ccc(CC)cc4)c3C2=O)CC1 2.51 µM [inhibitor, full curve], FC(F)(F)c1cccc(NC(=S)Nc2cccc(Cl)c2)c1 10 µM [inhibitor, partial curve, poor fit], COc1ccc(-n2c(CCc3ccccc3)nnc2SCC(=O)c2ccccc2)cc1 8.91 µM [inhibitor, partial curve, poor fit], CC(C)CCNC(=O)c1onc(CSc2ccc(F)cc2)c1C(=O)NCCC(C)C 25.1 µM [inhibitor, single point], O=C(COCC(=O)Nc1cccc(C(F)(F)F)c1)Nc1cccc(C(F)(F)F)c1 8.91 µM [inhibitor, partial curve, poor fit]

Activity change, negative = inhibition, inactive:
COc1ccc(N(C(=O)c2cnccn2)C(C(=O)NC2CCCCC2)c2ccc(Cl)cc2)cc1 (stereo not drawn) 7.1%, O=C(Nc1cccc(Oc2ccccc2)c1)c1ccc(-n2cncn2)c2ccoc12 -4.47%, CCC(=O)NC(NC(=S)Nc1ccccc1Br)C(Cl)(Cl)Cl (stereo not drawn) -21.6%, Cc1ccc(C)c(Cn2c(=O)cc(C(F)(F)F)c3c(C)nn(C)c32)c1 1.29%, O=C(Nc1ccc(-c2nc3ccccc3o2)cc1)c1cc(-n2cnnc2)ccc1Cl -1.56%, CCOC(=O)C1=C(CCl)NC(=O)NC1c1ccc2c(c1)OCO2 (stereo not drawn) -19.3%, CC1CCN(S(=O)(=O)c2nnc(NC(=O)c3ccccc3Br)s2)CC1 1.31%, CCOC(=O)c1ccc(NC(=O)c2sc3ccccc3c2Cl)cc1 13%, CCCCn1c(N)c(N(CCC(C)C)C(=O)c2ccc3ccccc3c2)c(=O)[nH]c1=O 0.247%, COc1cc(SC)ccc1C(=O)OC(C)C(=O)NC1CCCC1 (stereo not drawn) -16.4%, Cc1c(N=C2C=CC(=O)c3ccccc32)c(=O)n(-c2ccccc2)n1C 71.6%, COc1cccc(NC(=O)CCc2nnc3n(Cc4ccccc4Cl)c(=O)c4ccccc4n23)c1 -10.9%, O=c1c(-n2cncn2)c[nH]n1-c1cccc(Cl)n1 1.31%, CC(=O)NCCNC(=O)C1(C)Cc2c(-c3ccccc3)ccnc2O1 (stereo not drawn) 28.4%

— PubChem BioAssay AID624417 (National Center for Advancing Translational Sciences (NCATS), 2012)
